# Laboratory results published in ChEMBL document CHEMBL4888484, “Replenishing the malaria drug discovery pipeline: Screening and hit evaluation of the MMV Hit Generation Library 1 (HGL1) against asexual blood stage Plasmodium falciparum ,using a nano luciferase reporter read-out” (2022).
# Among all 150,000 compounds or so, about 540 (0.36%) showed an effect of 50% or more. The list shows a part of the results.
# System: Plasmodium falciparum
# Assay: Primary screen in NF54 nanoGlo assay, in single point, at 2uM, 72h; a lower Z score goes with more inhibition
# Type: functional, Erythrocyte
# Conditions: timepoint 72 hour
SMILES,% Inhibition,Z score
Cc1cc(C(=O)Nc2nc3cc4c(cc3s2)OCCCO4)on1,-10%,1.23
O=C(N/C(=N/c1ccccc1)N1CCN(C2CCCCC2)CC1)c1ccccc1,-7%,1.22
Cc1nc(N2CCC[C@@H]2CO)c2cnn(-c3cccc(Cl)c3)c2n1,-2%,0.27
N#Cc1cc2c([nH]c1=O)CCN(C(=O)c1cccc(Oc3ccc(F)cc3)c1)C2,-6%,0.9
COc1ccccc1C(=O)NC(=O)COC(=O)CN1C(=O)NC2(CCCCC2C)C1=O (stereo unspecified),-7%,0.79
O[C@@H](COCc1ccccc1)Cn1ccnc1-c1cnccn1,-4%,0.36
COCCNC(=O)CCN(CC(C)C)C(=O)c1cc(C)on1,-5%,0.69
O=C(Nc1cccs1)Nc1ccccc1NC(=O)c1cccs1,3%,-0.41
CCN=C(NCCOc1ccc(OC)cc1)N(C)C,1%,-0.1
Cc1cccc(C(=O)N2CCc3[nH]nc(C(=O)N4CCOCC4)c3C2)c1,-4%,0.64
O=C(C[C@H]1CC(=O)Oc2ccccc21)Nc1nnn[nH]1,-12%,1.59
CNS(=O)(=O)c1cc(-c2[nH]ncc2C(=O)N(C)C)oc1C,-4%,0.42
Cc1cc(F)ccc1NC(=O)C(=O)NCc1csc(C(C)(C)C)n1,-10%,1.28
CC(C)(C)OC(=O)N[C@H]1CCCCC[C@H]1C(=O)O,-4%,0.49
O=C(Nc1nc2c(s1)CN(C(=O)c1nc3ccccc3s1)CC2)c1ccco1,-16%,2.39
O=C(c1cc(-c2ccc(F)cc2)n[nH]1)N1CC(CF)C1,-9%,1.79
NC1(c2noc(-c3sc4cc(Cl)ccc4c3Cl)n2)CCC1,-6%,0.66
Cn1c(CN2CCC(O)CC2)nnc1C1CCN(C(=O)CC2CC2)CC1,4%,-0.64
CCOc1cc(N2CCC=C(c3cccnc3)C2)ncn1,-6%,0.65
COC(C)(C)/C=C(\N)C(=O)c1ccccc1,-12%,1.55
CCS(=O)(=O)c1cc(F)ccc1NC(=O)N1CCC[C@H](n2cc(C)cn2)C1,-2%,0.27

SMILES,% Inhibition,Z score
Cc1noc(C)c1Cn1cnc2cc(F)c(F)cc21,-10%,1.47
CCOC(=O)c1cnc(NCc2cncc(F)c2)s1,-5%,0.88
Cn1cc(-c2ccc(CN3CCCCC3)cc2)c(C#N)n1,3%,-0.51
CCNC(=O)c1cccc(N(C)S(C)(=O)=O)c1,-2%,0.45
Cc1nn(-c2ccccc2)c2sc(C(=O)N3CCCC3)cc12,-3%,0.29
COCc1noc(CN2CCN(Cc3ccccc3)[C@H]3CS(=O)(=O)C[C@H]32)n1,-13%,1.7
COc1cccc(-c2nc3ccc(-c4ccccc4)cn3c2CN2CCN(S(=O)(=O)c3ccc(F)cc3OC)CC2)c1,7%,-0.77
CN(C)c1ccc(-c2nc3[nH]cnn3c2Nc2ccccc2)cc1,36%,-4.8
Cc1ccc(OCC[C@H]2CCN(C(=O)c3cccnc3)C2)cc1,-8%,1.46
CCNC(=NCCc1ncc(C)cn1)NCC,-12%,1.56
CCO[C@@H](C)C(=O)NCCNc1nc(C)cc(=O)[nH]1,-1%,0.16
CC(=O)N1CCC(C(=O)N2C3CCC2CC(n2nccn2)C3)CC1 (stereo unspecified),3%,-0.52
CC1CN(CC(O)COCCOc2ccc(Cl)cc2)CC(C)O1 (stereo unspecified),-4%,0.7
CCN(C(=O)c1cn(CCOC)nn1)[C@@H](C)Cc1ccsc1,-11%,2.14
Cc1ccc2nc(N3CCN(Cc4ccccc4)CC3)c(-c3noc(C)n3)cc2c1,-13%,2.48
O=C(O)CCC1CCCN(C(=O)C2COCCO2)C1 (stereo unspecified),3%,-0.31
Cc1ccc2[nH]c(CCNC(=O)CCS(=O)(=O)c3ccc4c(c3)CC(=O)N4C)nc2c1,3%,-0.44
Cn1cnnc1CN1CCC2(CCC(=O)N(CCc3ccccn3)C2)CC1,3%,-0.45
O=C(CN1CCO[C@H](c2cccc(O)c2)C1)N(C1CCCC1)C1CC1,-2%,0.31
C[C@H](O)CC(C)(C)CNS(=O)(=O)c1ccc(F)cc1C#N,-4%,0.37
O=C1NC[C@H]2O[C@H](CCOc3ccccc3C(=O)N3CCN(C4CCNCC4)C[C@@H]13)CC[C@H]2n1cc(CN2CCOCC2)nn1,5%,-0.77

SMILES,% Inhibition,Z score
CC[C@@H](C(=O)NCc1ccc2c(c1)OCO2)n1nc(C)c2nn(-c3ccccc3)c(C)c2c1=O,3%,-0.44
Cc1cc([C@H](C)NCCc2nc(C)c(C)s2)no1,-11%,1.25
C[C@@H](CCc1ccccc1)NC(=O)C1CCN(S(=O)(=O)c2ccc(C#N)cc2)CC1,-7%,0.87
O=C(CN1CCC(COCc2ccc(F)cc2)CC1)N1CCc2ccccc21,-13%,1.44
COc1ccc(C(F)(F)c2nc(-c3ccsc3)no2)cc1,-2%,0.38
COc1ccccc1CC(NC(=O)C1CCOC1)C(C)C (stereo unspecified),-1%,0.26
O=C(Nc1ccc(N2CCOCC2)cc1)[C@H]1CCCN(c2cnc3nccnc3c2)C1,-2%,0.45
Cc1c(Cl)cc(NC(=O)N(C)Cc2ncnn2C)cc1Cl,-15%,2.17
CC(C)[C@H]1C=CCN1Cc1cc2n(n1)CCCNC2,2%,-0.28
Cc1n[nH]c([C@@H]2CN(c3cc(C(C)(C)C)nc(C(C)(C)C)n3)CCO2)n1,31%,-3.97
O=C(Nc1ccc2c(c1)CCC2)c1ccc(O)nc1,-3%,0.61
O=C(NC1CCN2CCCCC12)c1csc(-c2ccco2)n1 (stereo unspecified),-2%,0.37
CN(CCCc1nc2ccccc2[nH]1)C(=O)[C@@H]1COCCN1C1CCCC1,-6%,0.93
CCN(CC)S(=O)(=O)c1ccc(NC(=O)[C@H]2CCCN(C)C2)cc1,4%,-0.56
CC1=NO[C@H](C(=O)NCC2(Cn3ccnc3C)CC2)C1,-4%,0.75
O=C(Nc1ccc(F)cc1)N[C@H](c1ccccc1)c1cccs1,-11%,0.89
COc1cccc(NC(=O)N[C@H]2[C@H](O)[C@@H](Oc3ccccc3)[C@@H]3OC[C@H]2O3)c1,4%,-0.65
CC(C)CN(CC1CN(Cc2cccc(C(F)(F)F)c2)CC1c1cccc(C(F)(F)F)c1)C(=O)c1ccccc1 (stereo unspecified),-8%,1.01
Cc1cc(NC(=O)NCCc2nnc(-c3ccco3)[nH]2)nn1C(C)C,2%,-0.31
Cc1cc(CNCCn2cccn2)no1,-4%,0.39
Cc1ccc(NC(=O)c2ccc3c(c2)S(=O)(=O)N=CN3CCc2ccccc2)cc1,-6%,1.05

SMILES,% Inhibition,Z score
CC[C@H](C)N(CCNC(=O)Cn1nc(-c2ccccc2)c2cc(Cl)ccc21)C1CCCCC1,-7%,1.31
COc1cc(C)ccc1OCc1nc(C(=O)NC2Cc3ccccc3C2)co1,-10%,1.91
Cc1ccn2nc(C(=O)NCC[C@H]3CCCOC3)cc2c1,-10%,1.4
CC12CCC3C[C@@]1(C(=O)NCC(F)(F)F)OC[C@@]32C,3%,-0.33
CC(C)n1cc(C2=CCCN(c3nc(C4CCCCC4)ns3)CC2)nn1,33%,-3.71
COCCN(CC(=O)N(Cc1ccco1)Cc1cccn1C)C(=O)c1cc(Cl)cc(Cl)c1,-13%,2.29
COc1cc(-c2cc(CN(C[C@H]3CCCO3)C(=O)Nc3ccccc3C)no2)cc(OC)c1OC,-2%,0.37
Cc1cccc(-c2noc([C@]3(C(C)C)CNC(=O)C3)n2)c1F,-11%,1.59
COc1ccc2oc(CN[C@@H](C)CN3CCOCC3)nc2c1,-8%,1.15
Nc1nc(CCC(=O)N[C@H]2CC(=O)N(CC3CCCCC3)C2)cs1,8%,-1.18
C[C@H](NC(=O)c1nc(COc2ccc(CC(N)=O)cc2)no1)c1ccccc1,-6%,0.74
CN(C(=O)c1cccc(NC(=O)[C@H]2[C@@H]3C[C@@H]4[C@H]2C(=O)O[C@@H]4C3)c1)c1ccccc1Cl,-20%,2.29
O=C(CCc1cccc(Cl)c1)N1CCCN([C@H]2CCOC2)CC1,-14%,2.38
CCc1nn(-c2ccc(F)cc2)c(Oc2cccc(C)c2)c1CN(C[C@H]1CCCO1)C(=O)NC(C)(C)C,1%,-0.14
CCN1C(=O)N[C@@H](Cc2cccc(Cl)c2)C1=O,-19%,2
Cc1cc(-c2ccncc2)nn1CCNS(=O)(=O)CCC(F)(F)F,11%,-1.4
CC[C@@H](c1ccncc1)N(C)C(=O)c1cc2n(n1)CCCC2,-6%,1.01
Nc1ccc(-c2nc3c(ccc4ccccc43)o2)cc1,-11%,1.56
CN(CC(=O)NC(=O)NC1CCCCC1)Cc1cccc(Cl)c1Cl,6%,-0.83
CC(C)[C@H](Oc1ccccc1C#N)C(=O)NCCC(=O)OC1CCCCC1,-3%,0.48
